The values below come from publication PMC4336329 (PLoS ONE, 2015).

The campaign covered roughly 310,000 compounds. About 2,200 (0.71%) showed an effect of 50% or more. Effects have a minus sign here. Some of the results follow.

The target in the experiment is human ether-à-go-go-related gene (hERG) potassium channel (human, UniProt Q12809). In words: primary screen, population patch clamp on CHO cells stably expressing hERG.
Sequence of human ether-à-go-go-related gene (hERG) potassium channel (Q12809 whole entry, looked up): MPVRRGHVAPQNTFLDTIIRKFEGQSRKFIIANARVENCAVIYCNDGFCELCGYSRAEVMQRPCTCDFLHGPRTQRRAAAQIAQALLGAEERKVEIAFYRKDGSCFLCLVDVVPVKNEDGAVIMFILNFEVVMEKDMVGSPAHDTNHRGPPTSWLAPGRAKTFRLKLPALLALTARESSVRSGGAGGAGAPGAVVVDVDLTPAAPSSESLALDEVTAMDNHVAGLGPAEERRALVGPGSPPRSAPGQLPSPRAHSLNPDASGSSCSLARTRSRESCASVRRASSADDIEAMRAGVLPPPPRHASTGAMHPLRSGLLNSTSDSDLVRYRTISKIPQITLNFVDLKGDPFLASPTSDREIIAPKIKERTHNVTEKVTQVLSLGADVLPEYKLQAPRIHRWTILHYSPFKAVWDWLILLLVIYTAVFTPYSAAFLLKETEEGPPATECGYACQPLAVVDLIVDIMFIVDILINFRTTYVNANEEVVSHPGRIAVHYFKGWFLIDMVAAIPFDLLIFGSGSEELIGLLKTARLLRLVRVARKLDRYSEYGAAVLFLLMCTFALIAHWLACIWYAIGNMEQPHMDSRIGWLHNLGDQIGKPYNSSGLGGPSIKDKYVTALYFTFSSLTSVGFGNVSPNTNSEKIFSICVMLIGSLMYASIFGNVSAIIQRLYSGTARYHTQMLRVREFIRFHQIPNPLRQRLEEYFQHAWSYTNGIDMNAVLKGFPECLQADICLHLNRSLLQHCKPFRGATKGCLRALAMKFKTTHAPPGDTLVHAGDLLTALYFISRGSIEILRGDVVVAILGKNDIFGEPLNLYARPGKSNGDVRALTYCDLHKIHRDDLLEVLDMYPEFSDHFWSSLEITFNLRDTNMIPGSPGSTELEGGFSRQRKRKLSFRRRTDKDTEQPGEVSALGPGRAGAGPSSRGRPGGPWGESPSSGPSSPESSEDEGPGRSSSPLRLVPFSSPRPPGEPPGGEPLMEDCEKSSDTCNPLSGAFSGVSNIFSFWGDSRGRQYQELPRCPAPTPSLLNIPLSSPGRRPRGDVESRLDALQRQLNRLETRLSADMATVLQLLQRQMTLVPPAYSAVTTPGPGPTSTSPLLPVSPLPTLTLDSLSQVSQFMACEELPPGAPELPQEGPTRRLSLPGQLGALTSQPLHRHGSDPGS
In the case of `CCCCc1ccc(NC(=O)COc2ccc(C(=O)Nc3ccccc3OC)cc2)cc1`, the “hERG current change (%, negative = inhibition) at 1uM” value was 16.1%. Regarding `Cc1ccc(-c2nn(-c3ccccc3)cc2C(N)=O)o1`, the “hERG current change (%, negative = inhibition) at 1uM” value was 10.6%. Turning to `COc1ccc(CCN(C)C(=O)Cn2c(=O)oc3ccccc32)cc1OC`, the “hERG current change (%, negative = inhibition) at 1uM” value was determined as 14.1%. For the compound `O=C(Nc1ccc(F)c(Cl)c1)NC1CC1`, the “hERG current change (%, negative = inhibition) at 1uM” value came out at 9.81%. `COc1ccc(NC(=O)C2C(=O)N(C)C3(C)CC2c2ccccc2O3)cc1` (stereo not drawn): the “hERG current change (%, negative = inhibition) at 1uM” value is 3.33%. The result for `C=CCn1c(=O)c(C=Nc2cccc([N+](=O)[O-])c2)c(O)n(CCCC)c1=O` reads -31.1%; that for `COc1ccc(CC(=O)N2CCN(c3cccc(Cl)c3)CC2)cc1OC`, 8.32%; that for `CC1Cc2ccccc2N1C(=O)CCn1cccn1` (stereo not drawn), 11.2%. Under `O=C(Nc1ccc2c(c1)C(=O)N(c1ccccc1)C2=O)c1cccs1` stands 6.79%; under `COC(=O)c1ccc(OC)c(CSc2nnc(COc3cccc(C)c3)o2)c1`, 1.62%; under `C/C(=C\c1ccc(Cl)cc1)C(=O)c1c(C)cc(C)[nH]c1=O`, 3.88%. In the case of `Cn1c(SCC(=O)Nc2ccccc2C(F)(F)F)nc2c(c1=O)SCC2`, the “hERG current change (%, negative = inhibition) at 1uM” value is recorded as -29.1%. With `CCOC(=O)CNC(=O)CSc1nnc(Cn2c(=O)sc3ccccc32)n1C`, the “hERG current change (%, negative = inhibition) at 1uM” value is recorded as 10.7%. The result for `Cc1ccc(O)c(C2=NOC(O)(C(F)(F)C(F)F)C2)c1` (stereo not drawn) reads 11.2%. In the case of `Cc1n[nH]c(=O)c2c(NC(=O)CSc3ncccn3)oc(C)c12`, the “hERG current change (%, negative = inhibition) at 1uM” value amounted to 14.8%. Take `O=C(CN1CCN(c2ccccn2)CC1)Nc1cccc(Cl)c1Cl`: the “hERG current change (%, negative = inhibition) at 1uM” value came out at 9.2%.

As to `CCCCn1c(SCC(=O)Nc2ccc(OC)cc2)nc2ccc(N3CCOCC3)cc2c1=O`, the “hERG current change (%, negative = inhibition) at 1uM” value amounted to 2.85%. `N#CC1CC(c2ccccc2)=NN1c1ccccc1[N+](=O)[O-]` (stereo not drawn): the “hERG current change (%, negative = inhibition) at 1uM” value was 11%. Under `CC(=O)NCCn1c(SCC(=O)OCc2ccccc2)nc2ccccc2c1=O` stands -38.1%; under `Cc1csc(C(=O)O)c1NC(=O)c1c(Cl)cccc1Cl`, 8.63%; under `O=C(COC(=O)[C@@H]1CCCN1S(=O)(=O)c1ccccc1F)Nc1ccc(OC(F)F)cc1`, -27.8%. Under `COc1ccc(C(=O)NCc2ccc3c(c2)CCO3)cc1` stands 7.77%; under `CCc1ccc(OCCOCC(O)CN(CCO)CCO)cc1.Cl` (stereo not drawn), 13.9%; under `COc1ccc(NC(=S)N2CCN(C/C=C/c3ccccc3)CC2)cc1`, -5.21%. With `Cc1cc2cc(CNC(=O)Nc3ccccc3)ccc2n1C`, the “hERG current change (%, negative = inhibition) at 1uM” value is reported as 13.1%.

For `C=CCn1c(SCC(=O)c2[nH]c(C)c(C(C)=O)c2C)nnc1-c1ccncc1`, the “hERG current change (%, negative = inhibition) at 1uM” value came out at 12%.

In the case of `CCOC(=O)c1nc(C)n(-c2cc(Cl)cc(Cl)c2)n1`, the “hERG current change (%, negative = inhibition) at 1uM” value turned out to be 6.28%. Take `S=c1[nH]nc(-c2ccccc2)c2ccccc12`: the “hERG current change (%, negative = inhibition) at 1uM” value was 8.34%. Turning to `Cl.N=c1n(CCN2CCCCC2)c2ccccc2n1CC(O)c1ccc(Cl)c(Cl)c1` (stereo not drawn), the “hERG current change (%, negative = inhibition) at 1uM” value was -70.4%. Consider `Cn1c(SCC(=O)c2ccccc2)nnc1-c1ccc(O)cc1`, for which the “hERG current change (%, negative = inhibition) at 1uM” value is -5.87%. The result for `CNc1snc(C)c1C(=O)OCC(=O)N(C)Cc1ccccc1` reads 8.86%; that for `N#CC(C#N)=C1C=CC=CN1/C(=C\c1ccccc1)C(=O)c1cccs1`, 11.9%; that for `CCN(CC)c1ccc(/C=N\NC(N)=O)cc1`, 3.34%.

`Cn1c(SCC(=O)N2CCOCC2)nnc1-c1ccco1`: the “hERG current change (%, negative = inhibition) at 1uM” value was found to be 15.3%. The result for `Cc1ccccc1CNCc1cccnc1` reads 6%; that for `Cc1nn(C)cc1/C=N\NC(=O)c1ccc(Cn2cc(Cl)cn2)cc1`, 8.34%; that for `CCc1nnc(NC(=O)CSc2nnc(CNc3ccc(OC)cc3)n2CC)s1`, 12.4%. Under `CCN(CC)S(=O)(=O)c1ccc(Cl)c(NC(=O)c2cc(Cl)cc(Cl)c2)c1` stands 16.3%.

`Cc1cc(C)n2nc(-c3cccnc3)nc2n1`: the “hERG current change (%, negative = inhibition) at 1uM” value was 11.9%. With `CCOC(=O)C(C#N)=C1CCN(Cc2ccccc2)CC1`, the “hERG current change (%, negative = inhibition) at 1uM” value is 14.5%. The result for `CC(C)CCNC(=O)Cc1csc(-c2ccccc2)n1` reads 6.54%; that for `CCOc1ccc(CCNC(=O)COC(=O)c2cc(OC)cc(OC)c2)cc1OCC`, 2.97%. `O=C1/C(=C/c2ccc([N+](=O)[O-])cc2)CCC1C1CCCC1` (stereo not drawn): the “hERG current change (%, negative = inhibition) at 1uM” value turned out to be 15.1%. Take `O=C(COc1ccc(/C=N/NC(=O)C(=O)N2CCCCC2)cc1)Nc1ccccc1Cl`: the “hERG current change (%, negative = inhibition) at 1uM” value is reported as 17.8%. For the compound `COc1ccc(Cc2nnc(NC(=O)Cc3cccs3)s2)cc1OC`, the “hERG current change (%, negative = inhibition) at 1uM” value turned out to be 15.6%.
